# Experimental data taken from PubChem BioAssay AID686979 (National Center for Advancing Translational Sciences (NCATS), 2013).
# Out of some 420,000 compounds screened, about 50,000 (12%) were called active. This list was built around the results that the source calls inconclusive (neither active nor inactive); the mix of calls is not that of the screen. Calls come from the whole dose curve; as a rule, active = well fitted inhibition curve with a large enough effect; inconclusive = small, poorly fitted or top-dose-only effect; inactive = flat fitted curve, though single readings scatter. Potencies of inconclusive entries are left out as doubtful fits.
# Assay: qHTS for Inhibitors of human tyrosyl-DNA phosphodiesterase 1 (TDP1): qHTS in cells in presence of CPT; note: nearly all actives have a fitted effect of over 55% in size
# Conditions: chicken DT40 Tdp1-/-;hTDP1 cells + 20 nM CPT, ATP luminescence, 48 h; activity change, negative = growth inhibition: at 46.2 µM (top of the series) unless noted
# How it was run: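 Cell growth measured by CellTiter-Glo luminescence after a minimum 48 h, 37 C compound exposure with 20 nM CPT in Tdp1-knockout DT40 cells stably expressing hTDP1, seeded 400/well; qHTS titration format.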
# % is set by controls: 0 for no effect and ±100 for the full control effect; potency is the fitted concentration of half-maximal effect; tags give direction and shape of the fitted curve.
Compound,Potency,"activity change, negative = growth inhibition"
COc1ccc(CCC(=O)NC2CC(=O)N(c3ccc(F)cc3)C2)cc1 (stereo unspecified),inactive,
CC(=O)Nc1ccc(S(=O)(=O)NCCc2cn3nc(C)c(C)nc3n2)cc1,inactive,
COc1cc(NC(=O)C2=C(N3CCOCC3)/C(=C\c3ccc(N(C)C)cc3)CCC2)cc(OC)c1OC,active: 7.31 µM,
CCN(CC)C(=O)c1c(-c2ccccc2)c(-c2ccccc2)nn(CC)c1=O,"inconclusive [inhibitor, single point]",
CC1=C/C(=N\S(=O)(=O)c2ccccc2)C(C(C)C)=CC1=O,"inconclusive [inhibitor, partial curve]",
COc1cccc(OC)c1C(=O)Oc1ccc2c(c1)O/C(=C\c1ccncc1)C2=O,active: 18.4 µM,
COc1cc(-c2nc(S(=O)(=O)c3ccc(C)cc3)c(N3CCOCC3)o2)cc(OC)c1OC,active: 11.6 µM,
COc1ccc(Nc2c3c(nc4ccc(C)cc24)CCC3)cc1,"inconclusive [inhibitor, single point]",
O=C(c1cccc(S(=O)(=O)N2CCc3ccccc32)c1)N1CCN(c2ccccn2)CC1,"inconclusive [inhibitor, single point]",
CCCC(C(=O)NC1CCCC1)N(CC1CCCO1)C(=O)c1snc(C(N)=O)c1N (stereo unspecified),inactive,
COC(=O)c1ccc(NC(=O)C(=O)N2CCN(C(=S)Nc3ccc(OC)cc3)CC2)cc1,inactive,
Cc1cccc(N(Cc2ccccc2)C(=O)CN2C(=O)NC3(CCCC3)C2=O)c1,inactive,
CC(=O)NCCc1nc2ccccc2n1CCOc1ccc(C)cc1,"inconclusive [inhibitor, single point]",
COCCNc1nc(Nc2ccc(C(=O)OC)cc2)c2sccc2n1,active: 11.6 µM,
O=C(c1ccccc1F)N1CCN(C(=O)C(c2ccccc2)c2ccccc2)CC1,inactive,
NNC(=O)c1n[nH]c2c1CC(C1CCCCC1)CC2 (stereo unspecified),active: 5.17 µM,
Cc1cc(C(=O)Nc2sc3c(c2C#N)CCC(C)C3)cs1 (stereo unspecified),"inconclusive [inhibitor, partial curve, poor fit]",
CCC(C)NC(=O)C1(NC(=O)Nc2ccccc2)CCCCC1 (stereo unspecified),active: 16.4 µM,
CCN(CC)CCNC(=O)c1ccc(NC(=O)C2CCN(c3ncnc4sc(C)c(C)c34)CC2)cc1,active: 18.4 µM,
Cc1cc(C)n(-c2nnc(C)n2/N=C/c2ccco2)n1,inactive,
Cc1ccc(S(=O)(=O)C(CNS(=O)(=O)c2cc(F)ccc2F)c2cccs2)cc1 (stereo unspecified),"inconclusive [inhibitor, single point]",
O=C1NCCN(Cc2ccc(Cl)c(F)c2)C1CC(=O)N1CCc2ccccc2C1 (stereo unspecified),inactive,
CC(C)(C)OC(=O)N1CCC(c2c(C(=O)NC3CCCCC3)cnn2-c2ccc(F)cc2F)CC1,active: 20.6 µM,

Compound,Potency,"activity change, negative = growth inhibition"
CCN(CC)P(=O)(Nc1ccccc1Br)c1ccc(N(C)C)cc1NC(=O)c1ccco1 (stereo unspecified),active: 29.1 µM,
O=C1c2cccc3cccc(c23)C(=O)N1CC1CCN(CC(O)COCc2ccc3c(c2)OCO3)CC1 (stereo unspecified),"inconclusive [inhibitor, single point]",
Cc1cc(C)c2nc(SCC(=O)NCCN3C(=O)CSC3=O)cc(C)c2c1,"inconclusive [inhibitor, single point]",
C[C@H](CO)N1C[C@H](C)[C@H](CN(C)CC2CCCCC2)Oc2ccc(NS(=O)(=O)c3ccc(F)cc3)cc2CC1=O,"inconclusive [inhibitor, single point]",
CSc1ccccc1NC(=O)CCS(=O)(=O)c1nc(-c2ccc3c(c2)OCO3)cc(C(F)(F)F)n1,active: 8.2 µM,
O=C(COC(=O)C1CCN(S(=O)(=O)c2ccccc2C(F)(F)F)CC1)NCc1ccc(F)cc1,inactive,
O=C(Nc1nnc(-c2ccc(Cl)cc2)o1)c1cccc(N2C(=O)CCC2=O)c1,inactive,
CCN1CCN(c2oc(-c3ccc(COc4ccccc4C)o3)nc2C#N)CC1,"inconclusive [inhibitor, single point]",
Cc1nn(CCC(=O)NNC(=S)Nc2ccc(F)cc2)c(C)c1Br,,inconclusive: -19% [inhibitor]
COc1ccc(C)cc1NC(=O)c1ccc(CN2CCN(c3ccccc3)CC2)cc1,"inconclusive [inhibitor, single point]",
O=C(O)c1ccccc1Sc1c([N+](=O)[O-])cc(C(F)(F)F)cc1[N+](=O)[O-],"inconclusive [inhibitor, single point]",
Cc1ccc(OCc2nc3c4c(ncn3n2)-c2ccccc2CC42CCCC2)cc1,inactive,
Cc1ccc(-c2noc(CCCC(=O)NC3CCCCC3)n2)cc1,"inconclusive [inhibitor, partial curve]",
CC/C(Cc1ccccc1)=N/NC(=O)CCn1nnc2ccccc21,inactive,
Cc1cc(Br)cn2c(Cc3ccccc3)c(-c3cccc(Br)c3)nc12,"inconclusive [inhibitor, partial curve]",
Oc1c(C(Nc2ccccn2)c2ccccc2F)ccc2cccnc12 (stereo unspecified),"inconclusive [inhibitor, single point]",
COc1ccc(Cn2ccc3nc(C)c(C(=O)Nc4cccc(SC)c4)cc3c2=O)cc1,"inconclusive [inhibitor, single point]",
CCc1nnc(NS(=O)(=O)c2ccc(N=Cc3c(C)[nH]n(-c4ccc(Cl)cc4)c3=O)cc2)s1,"inconclusive [inhibitor, single point]",
COc1cccc(CNC(=O)Cn2ncn3nc(-c4cccs4)cc3c2=O)c1,"inconclusive [inhibitor, single point]",
Cc1noc(C)c1S(=O)(=O)N(CC(=O)Nc1ccc(F)cc1F)c1ccc(C(C)C)cc1,"inconclusive [inhibitor, partial curve]",
CCCNC(=O)c1ccc2c(c1)nc1n2CCCCC1,inactive,
CN(C)S(=O)(=O)c1ccc(C(=O)Nc2ccn(C)n2)cc1,inactive,
Cn1c(=O)c2c(nc(N3CCC(C(N)=O)CC3)n2CCSc2nc3ccccc3s2)n(C)c1=O,"inconclusive [inhibitor, single point]",
